The source gives no read counts; variants with many changes may rest on few reads.
B1: LINE1-mini (parent)
chain: GGCAGAGCUCAACACAGCGUGGCAAAGUGGCUGUGGCUAGACUGCC

Variants of: B1
Test: self-cleavage, relative activity (ratio to wild type); higher = more cleavage; in vitro, sequencing; the parent is a self-cleaving ribozyme

| Variant | self-cleavage |
| --- | --- |
| G17A C23U U32G | 0.15 |
| G17C A25C G27U U34A C46A | 0.05 |
| A16U G40U U43A C46A | 0.05 |
| G17C C37U C46G | 0.01 |
| A16U G19A G27A C46U | 0.6 |
| G17C C18G G21U | 0.14 |
| G17A A24U A26C G44U | 0.04 |
| G17A G36U C42U | 0.04 |
| A16U G27C G36C C45A | 0.02 |
| G17A G19U G33U | 0.02 |
| A16U G30A C37A | 0.1 |
| G17C C31A G44U | 0.01 |
| G17A G19U U20A A39U | 0.08 |
| A16U G21C U34A G35U | 0.02 |
| A16U G19U G29A C42U | 0.02 |
| A16U U28G A39G | 0 |
| A16U C23A C45G | 0.01 |
| G17C C18U C31A A41U C46U | 0.02 |
| A16U A39C G40C C45A | 0 |
| A16U G36C G40A C46A | 0.05 |
| G17A C31G U34G G40U | 0 |
| G17A C18U G33U C37A | 0.18 |
| G17A G21A G36U C37A G40A | 0.12 |
| A16U G17U C37U | 0.07 |

| Variant | self-cleavage |
| --- | --- |
| A16U G22A C45G | 0.06 |
| A16U U32G G33U | 0.01 |
| A16U C23U G27U G44A | 0.13 |
| G17A A25U U28C U32C G33U | 0.1 |
| A16U C23A A24U A25U U38C | 0.11 |
| G17C C18G G44U C45A | 0 |
| G17A G35U G36U | 0.05 |
| A16U C37G C45G | 0.11 |
| A16U G36C G40C G44U | 0 |
| A16U C23G G40A | 0.02 |
| A16U A24G G33U A39U G40C | 0.05 |
| G17A G19A A24C | 0.08 |
| A16U G22A A25U G27A A39C A41G | 0.27 |
| A16U G35U A39C G40U | 0.02 |
| A16U G27U C46A | 1.47 |
| G17A C18A G30U | 0.12 |
| G17A G27C C37U | 0.1 |
| G17A A25U U28G G29U U34G | 0.01 |
| A16U G36U U43A | 0.02 |
| G17A G22U C23A | 0.11 |
| G17A G21A C42G | 0.01 |
| A16U G22U C45U | 0.12 |
| A16U G27C G35A | 0.17 |
| A16U C23A C37U U38G C42U | 0.01 |

| Variant | self-cleavage |
| --- | --- |
| G17A A25U G35U | 0.07 |
| G17A C18A G19C G36U G44C | 0.02 |
| A16U C18A U20C G27U C37A C42A C46U | 0.02 |
| A16U G17U G35C A41C | 0.04 |
| A16U C18G U20C U32G G33U A39C | 0.01 |
| G17A C23U U38G C46U | 0.02 |
| A16U U32G G33U G40C | 0.01 |
| G17A C18U A39C | 0.04 |
| A16U G21C U32C U34C | 0.01 |
| A16U C31G C42G | 0.05 |
| A16U G17U G44U | 0.01 |
| A16U G21U U38A | 0.18 |
| A16U G19C A41U | 0.06 |
| G17A C23G G27U G36C C42G | 0 |
| A16U G29A U38A | 0.25 |
| A16U C18A G19U U20A U28A | 0.09 |
| A16U G29U C42A | 0.25 |
| A16U A24G C31A | 0 |
| G17A U20C G27A C42A | 0.05 |
| G17A G22C G35U U38G | 0.01 |
| G17A C31G G33U G40U | 0.02 |
| A16U G21U A25C G27U | 0.44 |
| A16U C18A G19A U20C G22A C23A G30C G33U | 0.03 |
| G17A G19A U34C G40U A41U | 0.08 |

| Variant | self-cleavage |
| --- | --- |
| G17A C37U U43A | 0.14 |
| A16U G30U G36U | 0.11 |
| G17C A24G G40A | 0.04 |
| G17A G21A A24U C31A C42U G44U | 0.07 |
| A16U G29C U32G | 0.59 |
| G17A G29C G44A C46A | 0.11 |
| G17A U20C U34G | 0 |
| G17A G30A C42A | 0.09 |
| A16U U32A G33C A39U G44A | 0.01 |
| G17A G35U C37A A39G | 0.04 |
| A16U G17A C37A | 0.02 |
| G17C A26U G44U | 0.04 |
| A16U U28G C42U | 0.05 |
| G17A G22U G30U C37A | 0.04 |
| A16U G19C A26C | 0.23 |
| G17A G19U C31A | 0.15 |
| G17A G33A G35U | 0.07 |
| A16U G21A A24C U28C G36C | 0.05 |
| G17A G19C A25G U32C | 0.02 |
| A16U G29U U32A | 0.1 |
| A16U G21U G30C | 0.72 |
| A16U G19U U20C G30C A41G | 0.1 |
| A16U G21U A39C A41C | 0.01 |
| A16U G21U C23G U28A C45U | 0.53 |

| Variant | self-cleavage |
| --- | --- |
| G17A G21A U34G | 0 |
| A16U C18A C31A C46U | 0.01 |
| G17C A25G G29C | 0.07 |
| A16G U38A C45G | 0.03 |
| G17A A26U G30C G35A U43A | 0.04 |
| G17A A26C G36C | 0.03 |
| G17C C31U C46U | 0.01 |
| A16U A24U A39G | 0.04 |
| G17C A26C C46U | 0.72 |
| G17A U20C G21C G22A C31A U43C C46A | 0.01 |
| G17A G19U G29U | 0.01 |
| G17C A24C G36C | 0.04 |
| G17C C37A U43C | 0.04 |
| A16U G33C G35U G36A C42G | 0.02 |
| G17C C18G G21U G36U | 0.03 |
| A16U G22A G30C | 0.02 |
| A16U A25C G29A | 0.01 |
| G17A G27A G40U | 0.05 |
| G17A C37U G44C | 0.03 |
| A16U G22C G35A | 0.06 |
| G17A G21U C45A | 0.04 |
| G17C C18A G22A | 0.15 |
| A16U A25U A41G | 0.04 |
| G17A G21A G27U C37U | 0.31 |

| Variant | self-cleavage |
| --- | --- |
| G17A C31A C46A | 0.07 |
| A16U C31A C37U | 0.02 |
| G17C C18A G21A G33U | 0.02 |
| A16U C23G A24G G27C G29C | 0.88 |
| G17A G19C C31A U38G | 0.01 |
| G17C C18U U20C U43A | 0.01 |
| A16U U20A G21C U34C G40A | 0.03 |
| A16U A25U C42U | 0.05 |
| A16U C37U G40C C45U | 0.01 |
| A16U U28A U34A C46G | 0.01 |
| A16U G27U C31U | 0 |
| G17C A25C C31G | 0.44 |
| A16G U34G G36U A39G G44A | 0.03 |
| G17A C18G U20A | 0.08 |
| G17A C18G U28C G29A U34A U43C | 0.07 |
| G17A U38G G40U | 0.08 |
| A16U C18A G27C U43C | 0.15 |
| A16U G17A C23U | 0.03 |
| G17A G21U U38A | 0.18 |
| G17C A39U G44C | 0.04 |
| A16U U38A G44U | 0.03 |
| G17A G35U G36C U38C C45G | 0.02 |
| G17A A26G U32A G36C | 0 |
| A16U G30A G36C | 0.09 |

| Variant | self-cleavage |
| --- | --- |
| A16U C18A C37A C42G | 0.02 |
| G17C C23U U34A | 0.03 |
| A16U C18U G36C C37A | 0.02 |
| G17A C18A U32A | 0.04 |
| A16U G19C G22U A39U A41U | 0.14 |
| A16U G17A C37A C42A | 0.06 |
| A16U U20C A25G G29A | 0.02 |
| A16U G22C G30C G35U | 0.01 |
| A16U U34A G40U | 0.07 |
| G17A G22C G35A | 0.02 |
| G17C A25C G29C C37G | 0.02 |
| G17A C18U G27U G44U C45U | 0.03 |
| G17C C18U G19A | 0.04 |
| G17A A24G G35A A39G | 0.03 |
| A16U G27C C31U U32A C37G | 0.02 |
| G17A G19A A24C G36C | 0.01 |
| G17A G29A C45G | 0.09 |
| A16U C23U G30U G36A | 0.05 |
| A16U C31U U38C | 0 |
| G17A U28A U32G C37A C45G | 0.03 |
| G17C A24G A39G C42U | 0.02 |
| A16U C23U C37A | 0.08 |
| A16U G33A U43A | 0.07 |

— the RNAGym collection of RNA variant scans (doi:10.7554/elife.90254)
